Assay results as given in the RNAGym collection of RNA variant scans (doi:10.1073/pnas.2313332121).
Variants at the background level are over-represented here.

B1: TPR 5TU (parent)
chain: GGAUCUUCUCGAUCUAACAAAAAAGACAAAUCUGCCACAAAGCUUGAGAGCAUCUUCGGAUGCAGAGGCGGCAGCCUUCGGUGGCGCGAUAGCGCCAACGUUCUCAACUAUGACACGCAAAACGCGUGCUCCGUUGAAUGGAGUUUAUCAUG

Variants of: B1
Experiment: polymerase ribozyme fitness, log enrichment relative to wild type (log ratio); higher = more active; in vitro selection for triplet polymerase activity
Procedure, shortened: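 Fitness is a logarithmic measure of how a genotype enriched relative to the wild type, with replicate averages weighted by inverse variance. The logarithm uses base 2, and enrichment came from Illumina sequencing of input and output libraries. Those libraries were PCR-built, transcribed mutants of each subunit of a heterodimeric triplet polymerase ribozyme, passed through one triplicate in vitro selection round that included frozen incubation at −7 °C, gel excision of extended constructs and streptavidin-bead capture. Genotypes were kept only if they had ≥10 input reads and ≥1 read per output.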

Variant | polymerase ribozyme fitness (log ratio)
GGAUCUUCUCGAUCUAACAAAAAAGACAAAUCUGCCACAAAGCUUGCGAGCCUCUUCGGAUGCAGAGGCGGUAGCCUUCGGUGGUGCGAGCGCGCCAACGUUCGCAACUAUGACACGCAAAACGCGUGCUCCGUUGAAUGGAGUUUAUCAUG | ≤ -4.2
GGAUCUUCUCGAUCUAACAAAAAAGACAAAUCUGCCACAAAGCUUGCGAGCUUCUUCGGAUGCAGAGGCGGCAGCCUUCGGUGGGGCGAUAUCGCCAACGUUCUCAACUAUGACACGCAAAACGCGUGCUCCGUUGAAUGGAGUUUAUCAUG | ≤ -4.2
GGAUCUUCUCGAUCUAACAAAAAAGACAAAUCUGCCACAAAGCUUGCGAGCAUCUUCGGGUGCAGAGGCGGCAGCCUUCGGUGGCGCGAUAGAGAUAACGUUCUCAACUAUGACACGCAAAACGCGUGCUCCGUUGAAGGGAGUUUAUCAUG | ≤ -4.2
GGAUCUUCUCGAUCUAACAAAAAAGACAAAUCUGCCACAAAGCUUGCGAGCAUCUUCGGGUGCAGAGGCGGCAGCCUUCGGUCGCGCGAUAGCGCCAACGUUCUCAACUAUGACACGCAAAACGCGUGCUCCGUUGAAUUGAGUUUAUCAUG | ≤ -4.2
GGAUCUUCUCGAUCUAACAAAAAAGACAAAUCUGCCACAAAGCUUGCGAGCAUCUUCGGUUGCAGAGGCGGCAGCCUUCUGUGGCGCGAUAGUGCCAACGUUCUCAACUAUGACACGCAAAACGCGUGCUCCGUUGAAUGGAGUUUAUCAUG | ≤ -4.2
GGAUCUUCUCGAUCUAACAAAAAAGACAAAUCUGCCACAAAGCUUGCGAGCAUCUUCGGUUGCAGAGGCGGCAGCCUUCGGUGUCGCGAUAGUGCCAUCGUUCUCAAUUAUGACACGCAAAACGCGUGCUACGUUGAAUGGAGUUUAUCAUG | ≤ -4.2
GGAUCUUCUCGAUCUAACAAAAAAGACAAAUCUGCCACAAAGCUUGCGAGCAUCUUCGGUUGCAGAGGCGGCAGCCUUCGGUGGCACGAUAGCGCCAACGUUCUCAACUUUGACACGCAAAACGCGUGCUCCGUUGAAUGGAGUUUAUCAUG | ≤ -4.2
GGAUCUUCUCGAUCUAACAAAAAAGACAAAUCUGCCACAAAGCUUGCGAGCAUCUUCGGAUGCGGAGGCGGCAGCCUUCGGUGGCGCGAUUGCGCCAACGUUCUCAACUAUGACACGCUAAACGCGUGCUCCGUUGAAUGGAGUUUAUCAUG | ≤ -4.2
GGAUCUUCUCGAUCUAACAAAAAAGACAAAUCUGCCACAAAGCUUGCGAGCAUCUUCGGAUGCGGAGGCGGCAGCCUUCGGCGGCGCGAUGGCGCCAAUGUUCUCAACUAUGACACGCAAAACGCGUGCUCCGUGGAAUGGAGUUUAUCAUG | ≤ -4.2
GGAUCUUCUCGAUCUAACAAAAAAGACAAAUCUGCCACAAAGCUUGCGAGCAUCUUCGGAUGCUGAGGCGGCAGCCUUUGGUUGCGCGAUAGCGCCAACGUUCUCAACUAUGACACGCAAACCGCGUGCUCCGUUGAAUGGAGUUUAUCAUG | ≤ -4.2
GGAUCUUCUCGAUCUAACAAAAAAGACAAAUCUGCCACAAAGCUUGCGAGCAUCUUCGGAUGCAGUGGCGGCAGCCUUCGGUGGCGCGAUAGGGCCAACGUUCUCAACUAUGACACGCAAAACGCGUGCUCCGUUGAAUGGAGUUUAUCAUG | ≤ -4.2
GGAUCUUCUCGAUCUAACAAAAAAGACAAAUCUGCCACAAAGCUUGCGAGCAUCUUCGGAUGCAGAGGCGGCGGCCUUCGGUGGCGCGAUAGUGCCAACGUUCUCAACUAUGACACGCAAAACACGUUCUCCGUUGAACGGAGUUUCUCAUG | ≤ -4.2
GGAUCUUCUCGAUCUAACAAAAAAGACAAAUCUGCCACAAAGCUUGCGAGCAUCUUCGGAUGCAGAGGCGGCGGCCUUCGGUGGCGCUAUAGCGCCAACGUUCUGGACUAUGACACGCAAAACGCGUGCUCCAUUGAAUGGAGUUUAGCAUG | ≤ -4.2
GGAUCUUCUCGAUCUAACAAAAAAGACAAAUCUGCCACAAAGCUUGCGAGCAUCUUCGGAUGCAGAGGCGGCUGCCUUCGGUGGCGCGAUAGCGCCAACGUUCUCAACUAUGACACGCAAAACCCGUGCUCCGUUGAAUGGAGUUUAUCAUG | -3.78
GGAUCUUCUCGAUCUAACAAAAAAGACAAAUCUGCCACAAAGCUUGCGAGCAUCUUCGGAUGCAGAGGCGGCAGCCUUCGGUGGCGCGAUGGCGCUAACGUUCUCAACUAUGACACGCAAAACGCGUGCUCCGUUGAAUGAAGUUUAUCAUG | ≤ -4.2
GGAUCUUCUCGAUCUAACAAAAAAGACAAAUCUGCCACAAAGCUUGCGAGCAUCUUCGGAUGCAGAGGCGGCAGCCUUCGGUGGCGCGAUUGCGCCAACGUUCUCAACUAUGACACGCAAAACCCGUGCUCCGUUGAAUGGAGUUUAUCCUG | ≤ -4.2
GGAUCUUCUCGAUCUAACAAAAAAGACAAAUCUGCCACAAAGCUUGCGAGCAUCUUCGGAUGCAGAGGCGGCAGCCUUCGGUGGCGCGAUAGCGCCAACGUUCUCAACUAUGACACGCAAAUCGCGUGCUCCGUUGAAUGGAGUUUAUCAUG | -1.45
GGAUCUUCUCGAUCUAACAAAAAAGACAAAUCUGCCACAAAGCUUGCGAGUAUUUUCGGAUGCAGAGGCGGCCGCCUUCGGUGGCGCGAUAGCGCCAACGUUCUCAACUAUGACACGCAAAUCGCGUGCUCCGUUGAAUGGAGUUUAUCAUG | ≤ -4.2
GGAUCUUCUCGAUCUAACAAAAAAGACAAAUCUGCCACAAAGCUUGCGAGUAUUUUCGGAUGCAGAGGCGGUAGCCUUCGGUGUCGCGAUAGCGCCAACGUUCUCAACUAUGACACGCAAAACGCGUGCUCCGUUGAAUGGAGUUUAUCAUG | -3.18

Variant | polymerase ribozyme fitness (log ratio)
GGAUCUUCUCGAUCUAACAAAAAAGACAAAUCUGCCACAAAGCUUGCGAGUAUCUUCCGAUGCAGAGGCAGCAGCCUUCGGUGGCGCGAUAGCGCUAACGUUCUCUACUAUGACACGCAAAACGCGUGCUCCGUUGAAUGGAGUUUAUCACG | ≤ -4.2
GGAUCUUCUCGAUCUAACAAAAAAGACAAAUCUGCCACAAAGCUUGCGAGCAUAUUCGGAUGCAGAGGCGGAAGCCUUCGGUGGUGCGAUAGCGCUAACGUUCUCAACUAUGACACGUAAAACGCGUGCUCCGUUGAAUCGAGUUUAUUAUG | ≤ -4.2
GGAUCUUCUCGAUCUAACAAAAAAGACAAAUCUGCCACAAAGCUUGCGAGCAUUUUCGGAUGCAGAGGCGGCAGCCUUCGGUUGCGCGAUAGCGCCAACGUUCUCAACUAUGACACGCAAAACGCGUGCUCCGUUGAAUGGGGUUUAUCAUG | -2.18
GGAUCUUCUCGAUCUAACAAAAAAGACAAAUCUGCCACAAAGCUUGCGAGCAUCUUAGGAUGCAGAGGCGGCAGCCUUCGGUGGCGCGAUAGCGCCAACGUUCUAAACUAUGACACGCAAAACGCAUGCUCCGUUGAAUGGAGUUUAUCAUG | -3.51
GGAUCUUCUCGAUCUAACAAAAAAGACAAAUCUGCCACAAAGCUUGCGAGCAUCUUAGGAUGCAGAGGCGGCAGCCUUCGGUGACGCGAUAGCGCCAACGCUCUCAACUAUGACACGCAAAACGCGUGCUCCGUUGAAUGGAGUUUAUCAUG | -0.765
GGAUCUUCUCGAUCUAACAAAAAAGACAAAUCUGCCACAAAGCUUGCGAGCAUCUUAGGAUGCAGAGGCGGCAGCCUUCGGUGCCUCGAUAGCGCCAACGUUCUCAACUAUGACACGCAAAACGCGUGCUCCGUUGAAUGGAGUUCAUUAUG | ≤ -4.2
GGAUCUUCUCGAUCUAACAAAAAAGACAAAUCUGCCACAAAGCUUGCGAGCAUCUUAGGAUGCAGAGGCGGCAGCCUUCGGUGUCGCGCUAGCGCCAACGUUCUCAACUAUGACACGCAAAACGCGUGCUCCGUUGAAUGGAGUUUAUCAUG | -1.5
GGAUCUUCUCGAUCUAACAAAAAAGACAAAUCUGCCACAAAGCUUGCGAGCAUCUUCGGAUGAAGAGGCGGCAGCCUUCGGUGGCGCGAUAGCGCCAACGUUCUCAGCUAUGAAACGCAAAACGCGUGCUCCGUUGUAUGGAGUUUAUCAUG | ≤ -4.2
GGAUCUUCUCGAUCUAACAAAAAAGACAAAUCUGCCACAAAGCUUGCGAGCAUCUUCGGAUGCAGAGGAGGCAGCCUUCGGUGGCGCGGUAGCGCCAACGUUCUCAACUAUGACACGCAAAACACGUGCUCCGUUGAAUGGAGUUUAUCAUG | -3.28
GGAUCUUCUCGAUCUAACAAAAAAGACAAAUCUGCCACAAAGCUUGCGAGCAUCUUCGGAUGCAGAGGGGGCAGCCUUCGGUAGCGCGAUAGCGCCAACGUUCUCAACUAUGACACGCACAACGCGUGCUCCGUUGAAUGGAGUUUAACAUG | ≤ -4.2
GGAUCUUCUCGAUCUAACAAAAAAGACAAAUCUGCCACAAAGCUUGCGAGCAUCUUCGGAUGCAGAGGUGGCAGCCUUCCGUGGCGCGAUAGCGCCAACGUUCUCAACUAUGACACGCAAAACGCGUGCUCCGUUGAAUGGAGUUUAUCAUG | ≤ -4.2
GGAUCUUCUCGAUCUAACAAAAAAGACAAAUCUGCCACAAAGCUUGCGAGCAUCUUCGGAUGCAGAGGCGGCAGGCAUCGGUGGCGCAAUAGCGCCAACGUUCUCUACUAUGACACGCAAAACGCGUGCUCCGUUGAAUGGAGUUUAUCAUG | ≤ -4.2
GGAUCUUCUCGAUCUAACAAAAAAGACAAAUCUGCCACAAAGCUUGCGAGCAUCUUCGGAUGCAGAGGCGGCAGCAUUCGGUGGCGCGAUAGCGCCAAUGUUCUCAACUAUGACACGCAAAACGCGGGCUCCGUGGAAUGGAGUUUAUCAUG | ≤ -4.2
GGAUCUUCUCGAUCUAACAAAAAAGACAAAUCUGCCACAAAGCUUGCGAGCAUCUUCGGAUGCAGAGGCGGCAGCGUUCGGUGGCGCGAUAGUGCCAACGUUCUCAACUAUGACACGCAAAACGUGUGCUCCGUUGAAUGGAGUUUAUCAUG | ≤ -4.2
GGAUCUUCUCGAUCUAACAAAAAAGACAAAUCUGCCACAAAGCUUGCGAGCAUCUUCGGAUGCAGAGGCGGCAGCCUUUGGUCGCGCGAUAGCGCCAACGUUCUCAACUAUGACACGCAAAACGCGUGCUCCGUUGAAUGGAGUUUAUCAUG | ≤ -4.2
GGAUCUUCUCGAUCUAACAAAAAAGACAAAUCUGCCACAAAGCUUGCGAGCAUCUUCGGAUGCAGAGGCGGCAGCCUUCGGUGGGGCGAUAGAGCCAAAGUUCUCAACUAUGACACGCAUAACGCGGGCUCCGUUGAAUGGAGUUUAUCAUG | ≤ -4.2
GGAUCUUCUCGAUCUAACAAAAAAGACAAAUCUGCCACAAAGCUUGCGAGCAUCUUCGGAUGCAGAGGCGGCAGCCUUCGGUGGGGCGAUAGCGCUAACGUUCUCAACUAUGACACGCAAAACGUGUGCUCCGUUGAAUGGAGUUUAUCAUG | ≤ -4.2
GGAUCUUCUCGAUCUAACAAAAAAGACAAAUCUGCCACAAAGCUUGCGAGCAUCUUCGGAUGCAGAGGCGGCAGCCUUCGGUGGUGCGAUAGCGCCAACGUUCUCAACUAUGACACGUAAAACGCGUGCACCGUUGAAUGGAGUUUAUCAUG | -3.62
GGAUCUUCUCGAUCUAACAAAAAAGACAAAUCUGCCACAAAGCUUGCGAGCAUCUUCGGAUGCAGAGGCGGCAGCCUUCGGUGGCGUGAUAGCGCCAACGUUCUAAACUAUGACACGCCAAACGCGUGCUCCGUUGAAUGGAGUUUAUCAUG | -1.51
